{"source": "PubChem BioAssay AID1345082", "about": "(National Center for Advancing Translational Sciences (NCATS), 2018)", "note": "About 4,000 (4.3%) of roughly 94,000 compounds were called active. This list was built around the results that the source calls inconclusive (neither active nor inactive); the mix of calls is not that of the screen. Calls come from the whole dose curve; as a rule, active = well fitted inhibition curve with a large enough effect; inconclusive = small, poorly fitted or top-dose-only effect; inactive = no such curve, though single readings can be large or run the other way. A potency beside an inconclusive call is a rough fit, not a confirmed value. % is set by controls: 0 for no effect and ±100 for the full control effect; potency is the fitted concentration of half-maximal effect; tags give direction and shape of the fitted curve.", "data": [{"experiment": "Cytotoxic Profiling in NIH 3T3 Cell Line of Diverse Libraries Using Quantitative High-Throughput Screening; note: nearly all actives have a fitted effect of over 55% in size", "conditions": "NIH 3T3 viability, CellTiter-Glo ATP luminescence, 48-72 h; activity change, negative = cytotoxicity: at 96.7 µM (top of the series); series mostly up to 96.7 µM", "procedure,_shortened": "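Cytotoxicity was measured by CellTiter-Glo ATP luminescence after 48 or 72 h compound exposure at 37 °C. Mouse NIH 3T3 fibroblasts were seeded at 400 cells/well and dosed by 23 nL pin transfer.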", "values": [{"smiles": "Cc1ccc(CN2CCc3nc(N4CCN(C)CC4)[nH]c(=O)c3CC2)c(C)c1", "activity change, negative = cytotoxicity": "inactive: -5.94%"}, {"smiles": "Fc1ccc(CN2CCOC[C@H]2c2ncc(-c3ccc(F)cc3F)[nH]2)cc1", "Potency": "inconclusive: 89.1 µM [inhibitor, partial curve]"}, {"smiles": "Cc1oc(-c2ccccc2)nc1CN1CCCC(C(=O)NCCc2noc(-c3ccccc3)n2)C1", "note": "(stereo not given)", "Potency": "inconclusive: 12.6 µM [inhibitor, partial curve, poor fit]"}, {"smiles": "O=C(c1cccs1)N1CC(c2noc(C3CCCN3CC3CC3)n2)C1", "note": "(stereo not given)", "activity change, negative = cytotoxicity": "inactive: -12.5%"}, {"smiles": "CN(C(=O)c1cc(-c2ccccc2F)nc2c1cnn2C)c1ccccc1", "Potency": "inconclusive: 50.1 µM [inhibitor, partial curve, poor fit]"}, {"smiles": "O=C(NC[C@H]1O[C@@H](CO)[C@@H](O)[C@H]1N1CCN(c2cccc(C(F)(F)F)c2)CC1)Nc1ccc(F)cc1F", "Potency": "inconclusive: 56.2 µM [inhibitor, partial curve, poor fit]"}, {"smiles": "CCc1cccc(NC(=O)c2cc3n(n2)CC(c2ccc4c(c2)OCO4)OC3)c1", "note": "(stereo not given)", "Potency": "inconclusive: 50.1 µM [inhibitor, partial curve, poor fit]"}, {"smiles": "CC1(CCCCN2CCOCC2)COc2ccc(C(=O)Nc3cccnc3)cc2N1", "note": "(stereo not given)", "Potency": "inconclusive: 89.1 µM [inhibitor, single point]"}, {"smiles": "COCc1cc(CNC(=O)C2(Oc3ccc(Cl)cc3)CCNCC2)[nH]n1", "activity change, negative = cytotoxicity": "inactive: -2.34%"}, {"smiles": "Cc1cc(-c2cc3c(cn2)CN(CC2CCOCC2)CCN3)ccn1", "Potency": "inconclusive: 100 µM [inhibitor, single point]"}, {"smiles": "COCCOC1CN(C2CCN(C(=O)c3ccc(C)s3)CC2)C12CCCCC2", "note": "(stereo not given)", "activity change, negative = cytotoxicity": "inactive: -20.6%"}, {"smiles": "COC(=O)[C@@H](CC(C)C)NC(=O)[C@@H]1C[C@@H](n2nnc(C(N)=O)c2C(N)=O)CCN1C(=O)c1cccn1C", "activity change, negative = cytotoxicity": "inactive: -12.7%"}, {"smiles": "CC(C)(C)c1ccc(NC(=O)O[C@@H]2CO[C@H]3[C@@H]2OC[C@@H]3Nc2nccc(-c3ccc4c(c3)OCO4)n2)cc1", "Potency": "inconclusive: 50.1 µM [inhibitor, partial curve, poor fit]"}, {"smiles": "Cc1ccc(CNC(=O)N2CCCC(CN3CCCC3)CC2)cc1", "note": "(stereo not given)", "activity change, negative = cytotoxicity": "inactive: -18.3%"}, {"smiles": "CC(=O)Oc1c(-c2ccc(NC(=O)c3ccccc3)cc2)c(-c2cccc(F)c2)nn1-c1ccccc1", "activity change, negative = cytotoxicity": "inactive: -21.8%"}, {"smiles": "COCCN1CCCN(C(=O)C2CC2)c2ccccc21", "activity change, negative = cytotoxicity": "inactive: -25.2%"}, {"smiles": "O=C1CC(c2noc(-c3ccc(OC(F)(F)F)cc3)n2)CN1c1ccc(F)cc1", "note": "(stereo not given)", "Potency": "inconclusive: 50.1 µM [inhibitor, partial curve, poor fit]"}, {"smiles": "COc1cc(NC(=O)Cn2c(-c3cnccn3)nc(C)c(C)c2=O)cc(OC)c1", "activity change, negative = cytotoxicity": "inactive: -29.5%"}, {"smiles": "CCn1cc(S(=O)(=O)N2CCC(c3noc(-c4ccccn4)n3)C2)cn1", "note": "(stereo not given)", "outcome": "inactive"}, {"smiles": "Cc1nc(-c2cccc(Cl)c2)n(Cc2nc(-c3ccccc3)oc2C)c(=O)c1CCO", "activity change, negative = cytotoxicity": "inactive: -6.05%"}, {"smiles": "COc1ccc(CCNC(=O)c2ccc(N3CC4CC(C3)[C@H]3CCCC(=O)N3C4)nc2)cc1OC", "note": "(stereo not given in full)", "activity change, negative = cytotoxicity": "inactive: -8.77%"}, {"smiles": "Cc1cnc(C(=O)N[C@@H]2CCC[C@@H]2C(=O)NCC2CCCCC2)cn1", "activity change, negative = cytotoxicity": "inactive: -0.345%"}, {"smiles": "Cc1ccc([C@@H]2CN(C(=O)c3sccc3Cl)C[C@H]2N(C)C)cc1", "activity change, negative = cytotoxicity": "inactive: -13.5%"}, {"smiles": "C#CCNC(=O)CNC(=O)c1cccc(-c2cc(F)ccc2OC)c1", "Potency": "inconclusive: 89.1 µM [inhibitor, partial curve, poor fit]"}, {"smiles": "COC[C@]1(O)CCN(C(=O)c2oc(COc3ccccc3)cc2C)CC1(C)C", "Potency": "inconclusive: 44.7 µM [inhibitor, partial curve, poor fit]"}, {"smiles": "COc1ccc(-c2cc(C(=O)NCC(C)C)c3c(C4CCCN4)noc3n2)cc1", "note": "(stereo not given)", "Potency": "inconclusive: 44.7 µM [inhibitor, partial curve, poor fit]"}, {"smiles": "O=C1c2cnc(-c3ccc(F)cc3)nc2OCCN1Cc1ccc(F)cc1F", "Potency": "inconclusive: 100 µM [inhibitor, single point]"}, {"smiles": "CCCCN1CC2(CCCN(C(=O)c3ccn4nnnc4c3)C2)CCC1=O", "note": "(stereo not given)", "activity change, negative = cytotoxicity": "inactive: -18.3%"}, {"smiles": "CN1CCCCCC(O)c2cc(C(=O)NCCCc3ccccc3)ccc21", "note": "(stereo not given)", "Potency": "inconclusive: 50.1 µM [inhibitor, partial curve, poor fit]"}, {"smiles": "COc1ccc(Cl)cc1C(=O)N1CCC2(CC1)NC(=O)N(c1cccc(F)c1)N2", "Potency": "inconclusive: 14.1 µM [inhibitor, partial curve, poor fit]"}, {"smiles": "CC(C)c1nc2c(c(-c3ccc(Cl)cc3)n1)CCN(C(=O)c1ccc3c(c1)OCO3)CC2", "Potency": "inconclusive: 56.2 µM [inhibitor, partial curve, poor fit]"}, {"smiles": "O=C(NC1CCN(c2cc(-c3ccc(F)cc3)[nH]n2)C1)c1ccc(F)cc1Cl", "note": "(stereo not given)", "Potency": "inconclusive: 50.1 µM [inhibitor, partial curve, poor fit]"}, {"smiles": "Cc1ccc(NC(=O)c2ccc(N3CC4CC(C3)[C@H]3CCCC(=O)N3C4)nc2)c(C)c1", "note": "(stereo not given in full)", "outcome": "inactive"}, {"smiles": "CC(C)N1CCN(C2CCN(c3ccc4c(c3)OCO4)CC2)CC1CCO", "note": "(stereo not given)", "activity change, negative = cytotoxicity": "inactive: -16.4%"}, {"smiles": "Cc1c(Cl)cccc1NC(=O)CCn1ccn2nc3c(c2c1=O)CCCC3", "activity change, negative = cytotoxicity": "inactive: -8.5%"}, {"smiles": "O=C(Cc1ccc2c(c1)OCCCO2)NC1CCCc2c1[nH]c1ccccc21", "note": "(stereo not given)", "Potency": "inconclusive: 44.7 µM [inhibitor, partial curve, poor fit]"}, {"smiles": "O=C(NCCNC(=O)c1ccc(-c2cncnc2)cc1)c1ccc(F)cc1", "activity change, negative = cytotoxicity": "inactive: -20.4%"}, {"smiles": "CN(C)C(=O)CCc1ccc2c(c1)CN(C(=O)C1CCCCC1)CCO2", "activity change, negative = cytotoxicity": "inactive: -28.8%"}, {"smiles": "FC(F)(F)c1cc(Nc2cnc3ccc(N4CCOCC4)nn23)ccc1Cl", "Potency": "inconclusive: 44.7 µM [inhibitor, partial curve, poor fit]"}, {"smiles": "CCOc1ccc(NC(=O)CC2CCCN(c3cnn(CCOC)c(=O)c3)C2)cc1", "note": "(stereo not given)", "Potency": "inconclusive: 70.8 µM [inhibitor, single point]"}, {"smiles": "O=C(NC1CCN(Cc2ccc(-c3ccsc3)cc2)C1)c1cccnc1", "note": "(stereo not given)", "Potency": "inconclusive: 50.1 µM [inhibitor, partial curve, poor fit]"}, {"smiles": "Cc1ccc2c(n1)N(C)[C@H](CO)CCN(CC1CCCCC1)C2", "Potency": "inconclusive: 20 µM [inhibitor, full curve, poor fit]"}, {"smiles": "COc1ccc(Cn2c3c(c(=O)n2Cc2ccccc2)CCN(C(=O)Cc2cccc(F)c2)C3)cc1", "Potency": "inconclusive: 4.47 µM [inhibitor, full curve, poor fit]"}, {"smiles": "Cc1ccc(OCC(=O)N2CCCC2c2nc(C3CCOCC3)no2)cc1", "note": "(stereo not given)", "Potency": "inconclusive: 79.4 µM [inhibitor, partial curve, poor fit]"}, {"smiles": "COC(=O)N1CCC2(CC1)CC(c1cccc(C(F)(F)F)c1)=NO2", "Potency": "inconclusive: 31.6 µM [inhibitor, partial curve]"}, {"smiles": "CCOC(=O)C1=CN(CC(=O)Nc2cccc(C)c2C)S(=O)(=O)N=C1C", "activity change, negative = cytotoxicity": "inactive: -6.73%"}, {"smiles": "c1ccc(CNc2cc3c(cn2)CN(Cc2cccnc2)CCN3)cc1", "activity change, negative = cytotoxicity": "inactive: -68.2% [at 138 µM]"}, {"smiles": "COc1ccccc1Nc1ccnc(N2CCCC(C(=O)NCC(F)(F)F)C2)n1", "note": "(stereo not given)", "Potency": "inconclusive: 39.8 µM [inhibitor, partial curve, poor fit]"}, {"smiles": "Cc1ccc(-c2nc(C(=O)N3CCN(c4cccc(C)c4C)CC3)no2)cc1", "Potency": "inconclusive: 70.8 µM [inhibitor, partial curve, poor fit]"}, {"smiles": "COc1ccc(-c2ccc3ncc(Nc4ccc(F)c(Cl)c4)n3n2)cn1", "Potency": "inconclusive: 100 µM [inhibitor, single point]"}, {"smiles": "O=C(NC1CCN(c2nccc(Nc3ccccc3F)n2)CC1)c1cccc(Cl)c1", "Potency": "active: 31.6 µM"}, {"smiles": "O=C1Nc2ccc(-c3ccc(Cl)cc3)cc2C(=O)N2CCN(C(=O)c3cccc(F)c3)C[C@H]12", "Potency": "inconclusive: 50.1 µM [inhibitor, partial curve, poor fit]"}, {"smiles": "Oc1cc(-c2cccc(Cl)c2)cc2c1OCCN(c1cc(C3CC3)ncn1)C2", "Potency": "inconclusive: 79.4 µM [inhibitor, partial curve]"}, {"smiles": "O=C(Cc1ccccc1)N1CCCC(c2noc(COc3ccccc3F)n2)C1", "note": "(stereo not given)", "Potency": "inconclusive: 50.1 µM [inhibitor, partial curve, poor fit]"}, {"smiles": "O=[S+]([O-])(c1ccccc1)N1CCN(Cc2ccccc2-c2ccccc2F)CC1", "Potency": "inconclusive: 31.6 µM [inhibitor, full curve, poor fit]"}, {"smiles": "Cc1cccc(OCCc2noc(C3CCN(C(=O)c4cn[nH]c4)C3)n2)c1", "note": "(stereo not given)", "Potency": "inconclusive: 50.1 µM [inhibitor, partial curve, poor fit]"}, {"smiles": "COc1ccc(C(=O)N2CCC(CC(=O)N3CCOCC3)C2)cc1OC", "note": "(stereo not given)", "outcome": "inactive"}, {"smiles": "N#Cc1ccc2nc([C@H]3CCN(Cc4ccccc4)C3)[nH]c2c1", "Potency": "active: 39.8 µM"}, {"smiles": "O=C(CN1C(=O)COc2ccc(C(=O)COc3cccc(F)c3)cc21)NCc1ccc2c(c1)OCO2", "activity change, negative = cytotoxicity": "inactive: -5.2%"}, {"smiles": "COc1ccc(-c2nc(C(C)C)nc3c2CN(C(=O)c2ccc4c(c2)OCO4)CC3)cc1", "Potency": "inconclusive: 50.1 µM [inhibitor, partial curve, poor fit]"}, {"smiles": "CC(C)NC(=O)N(C1CC1)C1CCOC2(CCN(C(=O)CCCc3ccccc3)CC2)C1", "note": "(stereo not given)", "Potency": "inconclusive: 39.8 µM [inhibitor, partial curve, poor fit]"}, {"smiles": "COc1ccc(CN2C[C@H]3CN(Cc4ccc([N+](=O)[O-])cc4)CCN3C2=O)cc1", "Potency": "inconclusive: 56.2 µM [inhibitor, partial curve, poor fit]"}, {"smiles": "CC1(C)[C@H](Cc2cc(CN3CCOCC3)on2)C[C@@H]1NCc1ccc(CO)o1", "outcome": "inactive [at 138 µM]"}, {"smiles": "CC(C)c1cc(C(=O)NC2CCN(c3ncccc3C#N)CC2)n(C)n1", "Potency": "inconclusive: 20 µM [inhibitor, full curve]"}, {"smiles": "O=C(NCC(F)(F)F)c1cc(C2CC2)nc2c1c(C1CCCN1)nn2-c1ccccc1", "note": "(stereo not given)", "Potency": "active: 22.4 µM"}]}]}
